Reference: publication PMC11628322
These are yes or no findings as the source states them, for the method shown. In cells and extracts the contact can be indirect. Some entries that bind do so weakly or less than the wild type. For some assays here: Sequences can lack the tags named with a protein.

Protein sequences, listed by entry. Tags and fused reporters are not part of them. Residues count along the entry.
UniProt P30530, residues 26-894: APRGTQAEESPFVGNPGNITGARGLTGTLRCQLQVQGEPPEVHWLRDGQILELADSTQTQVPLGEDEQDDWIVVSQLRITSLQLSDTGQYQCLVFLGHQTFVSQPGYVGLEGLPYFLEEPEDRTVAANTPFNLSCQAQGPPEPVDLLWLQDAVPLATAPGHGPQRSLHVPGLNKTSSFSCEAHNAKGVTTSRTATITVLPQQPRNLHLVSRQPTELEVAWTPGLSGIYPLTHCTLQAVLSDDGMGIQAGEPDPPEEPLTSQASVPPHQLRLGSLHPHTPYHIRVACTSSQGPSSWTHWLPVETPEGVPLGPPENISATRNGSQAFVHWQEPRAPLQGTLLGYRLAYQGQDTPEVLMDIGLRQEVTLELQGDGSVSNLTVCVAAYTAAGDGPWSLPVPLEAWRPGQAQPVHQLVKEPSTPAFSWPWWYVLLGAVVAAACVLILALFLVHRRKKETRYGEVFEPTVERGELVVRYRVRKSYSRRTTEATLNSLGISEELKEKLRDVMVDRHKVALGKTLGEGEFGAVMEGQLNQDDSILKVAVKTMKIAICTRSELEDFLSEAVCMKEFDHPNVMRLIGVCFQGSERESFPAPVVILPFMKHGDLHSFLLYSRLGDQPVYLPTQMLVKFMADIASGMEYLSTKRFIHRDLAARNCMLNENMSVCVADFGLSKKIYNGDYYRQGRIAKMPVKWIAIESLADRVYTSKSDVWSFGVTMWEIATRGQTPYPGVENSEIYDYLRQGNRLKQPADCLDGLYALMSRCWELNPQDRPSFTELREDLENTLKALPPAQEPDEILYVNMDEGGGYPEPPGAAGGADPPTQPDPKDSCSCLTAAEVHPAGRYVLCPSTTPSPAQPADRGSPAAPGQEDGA
UniProt P08581, residues 25-1390: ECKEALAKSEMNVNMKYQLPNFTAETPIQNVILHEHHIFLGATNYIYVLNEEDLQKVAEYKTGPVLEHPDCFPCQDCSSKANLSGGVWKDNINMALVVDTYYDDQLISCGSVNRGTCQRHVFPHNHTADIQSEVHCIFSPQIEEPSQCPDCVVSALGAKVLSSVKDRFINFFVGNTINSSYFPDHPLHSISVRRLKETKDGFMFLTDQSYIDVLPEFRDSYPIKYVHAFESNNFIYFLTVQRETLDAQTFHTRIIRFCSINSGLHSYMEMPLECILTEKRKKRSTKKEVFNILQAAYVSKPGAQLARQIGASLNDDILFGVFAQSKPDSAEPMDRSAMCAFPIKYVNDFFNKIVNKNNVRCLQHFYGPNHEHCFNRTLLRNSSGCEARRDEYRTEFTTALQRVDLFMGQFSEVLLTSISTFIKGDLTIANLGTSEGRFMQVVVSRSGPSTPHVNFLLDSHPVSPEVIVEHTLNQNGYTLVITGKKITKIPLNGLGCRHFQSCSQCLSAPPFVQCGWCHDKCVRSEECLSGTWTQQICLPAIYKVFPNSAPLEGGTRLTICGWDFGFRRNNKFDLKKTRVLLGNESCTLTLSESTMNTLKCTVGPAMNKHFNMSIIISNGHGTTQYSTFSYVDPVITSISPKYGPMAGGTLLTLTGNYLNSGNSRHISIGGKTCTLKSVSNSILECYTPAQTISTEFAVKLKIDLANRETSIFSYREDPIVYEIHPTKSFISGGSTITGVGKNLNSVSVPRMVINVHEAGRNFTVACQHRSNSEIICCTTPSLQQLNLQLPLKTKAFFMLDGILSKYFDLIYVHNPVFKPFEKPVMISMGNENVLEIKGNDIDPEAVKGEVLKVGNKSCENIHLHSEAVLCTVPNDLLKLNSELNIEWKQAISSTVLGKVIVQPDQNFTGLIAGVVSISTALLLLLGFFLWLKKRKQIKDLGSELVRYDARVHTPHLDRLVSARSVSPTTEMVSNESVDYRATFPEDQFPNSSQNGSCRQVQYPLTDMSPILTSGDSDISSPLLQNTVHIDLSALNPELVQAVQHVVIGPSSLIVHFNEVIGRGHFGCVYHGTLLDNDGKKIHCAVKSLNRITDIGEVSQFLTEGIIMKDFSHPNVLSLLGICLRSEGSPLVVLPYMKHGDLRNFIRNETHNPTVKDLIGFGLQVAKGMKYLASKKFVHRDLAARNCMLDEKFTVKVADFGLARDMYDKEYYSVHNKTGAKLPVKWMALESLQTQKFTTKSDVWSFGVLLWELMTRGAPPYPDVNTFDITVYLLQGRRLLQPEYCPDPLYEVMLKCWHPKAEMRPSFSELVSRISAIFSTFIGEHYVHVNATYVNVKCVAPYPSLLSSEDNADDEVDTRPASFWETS

Legend:
[1] = target: T1, Flag-PFKP (Phosphofructokinase, Platelet Type, labeled with a 3x Flag tag) (UniProt Q01813); assay: co-IP; anti-Flag magnetic beads on lysate of H1299 cells transfected with Flag-PFKP; Western blot
T1 sequence: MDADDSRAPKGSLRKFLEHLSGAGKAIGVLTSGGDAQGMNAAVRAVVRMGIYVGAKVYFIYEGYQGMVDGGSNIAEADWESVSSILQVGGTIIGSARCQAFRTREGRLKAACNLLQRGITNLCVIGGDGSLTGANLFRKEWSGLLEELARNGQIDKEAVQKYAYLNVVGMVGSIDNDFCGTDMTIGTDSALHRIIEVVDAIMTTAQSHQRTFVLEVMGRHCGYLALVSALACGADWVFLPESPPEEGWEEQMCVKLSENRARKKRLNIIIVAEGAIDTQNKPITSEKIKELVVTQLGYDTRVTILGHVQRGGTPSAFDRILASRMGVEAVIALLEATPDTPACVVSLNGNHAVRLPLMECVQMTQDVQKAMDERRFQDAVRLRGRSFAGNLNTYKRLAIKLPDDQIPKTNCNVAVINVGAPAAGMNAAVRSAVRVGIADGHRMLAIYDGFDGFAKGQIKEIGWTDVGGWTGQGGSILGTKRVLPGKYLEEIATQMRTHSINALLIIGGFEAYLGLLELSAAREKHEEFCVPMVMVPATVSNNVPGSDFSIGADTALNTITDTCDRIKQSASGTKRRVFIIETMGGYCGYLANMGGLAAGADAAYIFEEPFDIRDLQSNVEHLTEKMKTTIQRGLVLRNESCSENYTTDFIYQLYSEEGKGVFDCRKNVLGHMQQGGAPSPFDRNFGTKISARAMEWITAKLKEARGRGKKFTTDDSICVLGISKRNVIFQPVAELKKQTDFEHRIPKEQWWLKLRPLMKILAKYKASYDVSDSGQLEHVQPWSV

[2] = target: T2, endogenous PFKP (Phosphofructokinase, Platelet Type) (human (endogenous in H1299)) (UniProt Q01813); assay: co-IP; anti-PFKP antibody on lysate of H1299 cells without Flag-PFKP transfection; Western blot
T2 sequence: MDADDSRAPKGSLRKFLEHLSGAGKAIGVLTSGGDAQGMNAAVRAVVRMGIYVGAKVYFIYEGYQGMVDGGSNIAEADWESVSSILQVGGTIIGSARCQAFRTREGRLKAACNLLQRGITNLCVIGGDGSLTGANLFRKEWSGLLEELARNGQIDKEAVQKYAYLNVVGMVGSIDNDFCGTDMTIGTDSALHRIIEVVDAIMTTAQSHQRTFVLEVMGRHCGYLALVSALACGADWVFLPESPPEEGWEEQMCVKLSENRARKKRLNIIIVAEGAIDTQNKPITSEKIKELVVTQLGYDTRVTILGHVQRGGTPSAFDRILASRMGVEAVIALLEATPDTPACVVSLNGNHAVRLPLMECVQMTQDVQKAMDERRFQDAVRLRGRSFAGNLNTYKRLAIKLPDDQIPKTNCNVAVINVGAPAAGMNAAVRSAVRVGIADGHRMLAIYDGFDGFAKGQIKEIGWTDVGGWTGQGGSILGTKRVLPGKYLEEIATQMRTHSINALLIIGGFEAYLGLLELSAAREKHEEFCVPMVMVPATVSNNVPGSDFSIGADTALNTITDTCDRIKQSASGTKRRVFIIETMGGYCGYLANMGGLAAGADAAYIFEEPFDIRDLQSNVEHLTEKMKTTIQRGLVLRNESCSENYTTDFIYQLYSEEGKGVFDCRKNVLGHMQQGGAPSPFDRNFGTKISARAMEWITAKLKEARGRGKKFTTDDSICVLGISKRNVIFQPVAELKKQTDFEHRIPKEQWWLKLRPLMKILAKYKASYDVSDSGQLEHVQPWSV

[3] = target: tyrosine-protein kinase receptor UFO (AXL) (human (endogenous in H1299)) (UniProt P30530); assay: co-IP; AXL (C89E7) antibody added to the lysate overnight, then magnetic beads; H1299 cells with Flag-PFKP or without Flag-PFKP; Western blot

Molecule: MET (MET proto-oncogene, Receptor Tyrosine Kinase) (from UniProt P08581 25-1390)
- binding [1]: no binding

Molecule: tyrosine-protein kinase receptor UFO (AXL) (from UniProt P30530 26-894)
- binding [1]: binds
- binding [2]: binds

B1: Flag-PFKP (Phosphofructokinase, Platelet Type, labeled with a 3x Flag tag) (enzyme, UniProt Q01813 1-784)
chain: MDADDSRAPKGSLRKFLEHLSGAGKAIGVLTSGGDAQGMNAAVRAVVRMGIYVGAKVYFIYEGYQGMVDGGSNIAEADWESVSSILQVGGTIIGSARCQAFRTREGRLKAACNLLQRGITNLCVIGGDGSLTGANLFRKEWSGLLEELARNGQIDKEAVQKYAYLNVVGMVGSIDNDFCGTDMTIGTDSALHRIIEVVDAIMTTAQSHQRTFVLEVMGRHCGYLALVSALACGADWVFLPESPPEEGWEEQMCVKLSENRARKKRLNIIIVAEGAIDTQNKPITSEKIKELVVTQLGYDTRVTILGHVQRGGTPSAFDRILASRMGVEAVIALLEATPDTPACVVSLNGNHAVRLPLMECVQMTQDVQKAMDERRFQDAVRLRGRSFAGNLNTYKRLAIKLPDDQIPKTNCNVAVINVGAPAAGMNAAVRSAVRVGIADGHRMLAIYDGFDGFAKGQIKEIGWTDVGGWTGQGGSILGTKRVLPGKYLEEIATQMRTHSINALLIIGGFEAYLGLLELSAAREKHEEFCVPMVMVPATVSNNVPGSDFSIGADTALNTITDTCDRIKQSASGTKRRVFIIETMGGYCGYLANMGGLAAGADAAYIFEEPFDIRDLQSNVEHLTEKMKTTIQRGLVLRNESCSENYTTDFIYQLYSEEGKGVFDCRKNVLGHMQQGGAPSPFDRNFGTKISARAMEWITAKLKEARGRGKKFTTDDSICVLGISKRNVIFQPVAELKKQTDFEHRIPKEQWWLKLRPLMKILAKYKASYDVSDSGQLEHVQPWSV
- binding [3]: binds

B2: endogenous PFKP (Phosphofructokinase, Platelet Type) (enzyme, UniProt Q01813 1-784)
chain: MDADDSRAPKGSLRKFLEHLSGAGKAIGVLTSGGDAQGMNAAVRAVVRMGIYVGAKVYFIYEGYQGMVDGGSNIAEADWESVSSILQVGGTIIGSARCQAFRTREGRLKAACNLLQRGITNLCVIGGDGSLTGANLFRKEWSGLLEELARNGQIDKEAVQKYAYLNVVGMVGSIDNDFCGTDMTIGTDSALHRIIEVVDAIMTTAQSHQRTFVLEVMGRHCGYLALVSALACGADWVFLPESPPEEGWEEQMCVKLSENRARKKRLNIIIVAEGAIDTQNKPITSEKIKELVVTQLGYDTRVTILGHVQRGGTPSAFDRILASRMGVEAVIALLEATPDTPACVVSLNGNHAVRLPLMECVQMTQDVQKAMDERRFQDAVRLRGRSFAGNLNTYKRLAIKLPDDQIPKTNCNVAVINVGAPAAGMNAAVRSAVRVGIADGHRMLAIYDGFDGFAKGQIKEIGWTDVGGWTGQGGSILGTKRVLPGKYLEEIATQMRTHSINALLIIGGFEAYLGLLELSAAREKHEEFCVPMVMVPATVSNNVPGSDFSIGADTALNTITDTCDRIKQSASGTKRRVFIIETMGGYCGYLANMGGLAAGADAAYIFEEPFDIRDLQSNVEHLTEKMKTTIQRGLVLRNESCSENYTTDFIYQLYSEEGKGVFDCRKNVLGHMQQGGAPSPFDRNFGTKISARAMEWITAKLKEARGRGKKFTTDDSICVLGISKRNVIFQPVAELKKQTDFEHRIPKEQWWLKLRPLMKILAKYKASYDVSDSGQLEHVQPWSV
- binding [3]: binds
